Data taken from the supplement of paper PMC4604168 (melanoma cell lines).
The list shows a part of the results. Many values rest on one well or one pass, so single values are uncertain.

How the values were obtained:
Test in all cases: cell count relative to DMSO control; melanoma cells; higher = more viable cells
Conditions in all cases: library dose: standard library concentration; 72 h
G361 = tested on: G361
IPC-298 = tested on: IPC-298
IST-MEL1 = tested on: IST-MEL1
LB2518-MEL = tested on: LB2518-MEL
LOXIMVI = tested on: LOXIMVI
MEL-HO = tested on: MEL-HO
MZ2-MEL = tested on: MZ2-MEL
MeWo = tested on: MeWo
RPMI7951 = tested on: RPMI7951
RVH-421 = tested on: RVH-421
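Note: cells treated in 1,536-well plates, then fixed and DAPI-stained, with nuclei counted from automated high-throughput microscope images.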

| Compound | cell count (G361) | cell count (IPC-298) | cell count (IST-MEL1) | cell count (LB2518-MEL) | cell count (LOXIMVI) | cell count (MEL-HO) | cell count (MZ2-MEL) | cell count (MeWo) | cell count (RPMI7951) | cell count (RVH-421) |
| --- | --- | --- | --- | --- | --- | --- | --- | --- | --- | --- |
| C[C@]1(c2nc3c(C(N)=O)cccc3[nH]2)CCCN1 [Veliparib] + CCCCCCCCCCCC1=C(O)C(=O)C=C(O)C1=O [Embelin] (first compound 7 µM, partner dose 6 µM) | 77.3% | 72.3% | 62.4% | 76.3% | 105% | 79.8% | 59.2% | 92.7% | 83% | 67.6% |
| C=CCn1c(=O)c2cnc(Nc3ccc(N4CCN(C)CC4)cc3)nc2n1-c1cccc(C(C)(C)O)n1 + COc1ccc2c(c1)CCC1C2CCC2(C)C(NCCCCCCN3C(=O)C=CC3=O)CCC12 [U73122] (first compound 0.1 µM, partner dose 2 µM) | 80.1% | 80.3% | 79.6% | 67.7% | 69.3% | 87.4% | 101% | 51% | 26.2% | 50.8% |
| OCCn1cc(-c2cnc3nnn(Cc4ccc5ncccc5c4)c3n2)cn1 + NCC(=O)Nc1ccc(-n2nc(C(F)(F)F)cc2-c2ccc3c(ccc4ccccc43)c2)cc1 [OSU03012] (first compound 5 µM, partner dose 5 µM) | 87.5% | 61.2% | 81.1% | 77% | 72.6% | 84.2% | 83.2% | 107% | 98.2% | 84.6% |
| OCCn1cc(-c2cnc3nnn(Cc4ccc5ncccc5c4)c3n2)cn1 + c1cc(-c2cnn3cc(-c4ccc(OCCN5CCCCC5)cc4)cnc23)ccn1 [Dorsomorphin] (first compound 5 µM, partner dose 2 µM) | 75.7% | 91.1% | 100% | 72.7% | 128% | 90.8% | 97.6% | 86.5% | 83.1% | 112% |
| C[C@]1(c2nc3c(C(N)=O)cccc3[nH]2)CCCN1 [Veliparib] + C[C@@H]1CCN(C(=O)CC#N)C[C@@H]1N(C)c1ncnc2[nH]ccc12 [CP690550] (first compound 7 µM, partner dose 5 µM) | 99.6% | 114% | 82.2% | 96% | 103% | 89% | 101% | 83.7% | 82.3% | 84.4% |
| CO[C@@H]1[C@H](N(C)C(=O)c2ccccc2)C[C@H]2O[C@]1(C)n1c3ccccc3c3c4c(c5c6ccccc6n2c5c31)C(=O)NC4 [Midostaurin] + COc1ccc2c(c1)CCC1C2CCC2(C)C(NCCCCCCN3C(=O)C=CC3=O)CCC12 [U73122] (first compound 0.4 µM, partner dose 2 µM) | 53.2% | 83.1% | 82.8% | 73.2% | 48.7% | 79.8% | 69.8% | 50.5% | 22.4% | 56.7% |
| C[C@]1(c2nc3c(C(N)=O)cccc3[nH]2)CCCN1 [Veliparib] + NCC(=O)Nc1ccc(-n2nc(C(F)(F)F)cc2-c2ccc3c(ccc4ccccc43)c2)cc1 [OSU03012] (first compound 7 µM, partner dose 5 µM) | 80.9% | 58.3% | 77.7% | 86.3% | 75.6% | 74.3% | 93% | 84.3% | 110% | 83.1% |
| C=CCn1c(=O)c2cnc(Nc3ccc(N4CCN(C)CC4)cc3)nc2n1-c1cccc(C(C)(C)O)n1 + COC(=O)c1sccc1S(=O)(=O)Nc1ccc(Nc2ccccc2)cc1OC [GSK0660] (first compound 0.1 µM, partner dose 5 µM) | 70.9% | 79.1% | 104% | 48.4% | 130% | 92.2% | 98.3% | 80.4% | 83.4% | 87.6% |
| C[C@]1(c2nc3c(C(N)=O)cccc3[nH]2)CCCN1 [Veliparib] + N#Cc1c(O)c2c(-c3ccc(-c4ccccc4O)cc3)csc2[nH]c1=O [A769662] (first compound 7 µM, partner dose 10 µM) | 96.2% | 103% | 94.7% | 86.6% | 110% | 98.8% | 95.7% | 102% | 138% | 86.7% |
| CN(C)S(=O)(=O)c1ccc2c(c1)/C(=C/c1cc3c([nH]1)CCCC3)C(=O)N2 + O=C(Nc1ccccc1)c1cc([N+](=O)[O-])ccc1Cl [GW9662] (first compound 2 µM, partner dose 10 µM) | 63.2% | 51.5% | 74.9% | 59.5% | 74.4% | 71.1% | 51.5% | 53.8% | 34.8% | 82.2% |
| CN(C)S(=O)(=O)c1ccc2c(c1)/C(=C/c1cc3c([nH]1)CCCC3)C(=O)N2 + Oc1nc(-c2ccc(C(F)(F)F)cc2)nc2c1CSCC2 [XAV939] (first compound 2 µM, partner dose 10 µM) | 56.7% | 66.4% | 78.8% | 91.1% | 123% | 81.5% | 75.3% | 78.1% | 50.5% | 84.5% |
| NCC(=O)Nc1ccc(-n2nc(C(F)(F)F)cc2-c2ccc3c(ccc4ccccc43)c2)cc1 + COc1ccc(-c2ccc3c(N4CCOCC4)nc(N4C[C@@H](C)O[C@@H](C)C4)nc3n2)cc1CO [KU0063794] (first compound 5 µM, partner dose 0.1 µM) | 81.3% | 58.9% | 96% | 91% | 141% | 81.9% | 85.9% | 102% | 69.7% | 88.7% |
| CN(C)S(=O)(=O)c1ccc2c(c1)/C(=C/c1cc3c([nH]1)CCCC3)C(=O)N2 + CCc1ccc(CCOc2ccc(CC3SC(=O)NC3=O)cc2)nc1 [pioglitazone] (first compound 2 µM, partner dose 10 µM) | 69.2% | 87.6% | 89.2% | 85.8% | 123% | 93.8% | 101% | 116% | 102% | 74.6% |
| NC(=O)Nc1cc(-c2cccc(F)c2)sc1C(=O)N[C@H]1CCCNC1 + C[C@@H]1CCN(C(=O)CC#N)C[C@@H]1N(C)c1ncnc2[nH]ccc12 [CP690550] (first compound 0.1 µM, partner dose 5 µM) | 94.1% | 106% | 87.7% | 63.4% | 77.5% | 90.9% | 118% | 91.9% | 43.4% | 105% |
| CN(C)S(=O)(=O)c1ccc2c(c1)/C(=C/c1cc3c([nH]1)CCCC3)C(=O)N2 + CCN(CC)CCCCNc1ncc2cc(-c3cc(OC)cc(OC)c3)c(NC(=O)NC(C)(C)C)nc2n1 [PD173074] (first compound 2 µM, partner dose 0.5 µM) | 68.3% | 61.7% | 80.4% | 62.3% | 81.8% | 87.3% | 74.3% | 79.8% | 55.9% | 73.2% |
| C=CCn1c(=O)c2cnc(Nc3ccc(N4CCN(C)CC4)cc3)nc2n1-c1cccc(C(C)(C)O)n1 + Cc1ccc(NC(=O)c2cccc(N(C)C)c2)cc1NC(=O)c1ccc(O)cc1 [ZM336372] (first compound 0.1 µM, partner dose 10 µM) | 79.1% | 80.3% | 79.4% | 44.9% | 96.6% | 81.7% | 93.6% | 67.9% | 59.7% | 103% |
| CO[C@@H]1[C@H](N(C)C(=O)c2ccccc2)C[C@H]2O[C@]1(C)n1c3ccccc3c3c4c(c5c6ccccc6n2c5c31)C(=O)NC4 [Midostaurin] + O=c1cc(-c2cccc3c2Sc2ccccc2S3)oc(N2CCOCC2)c1 [KU55933] (first compound 0.4 µM, partner dose 5 µM) | 34% | 50.9% | 63.7% | 46.8% | 70.1% | 71.2% | 36.2% | 58.2% | 28.8% | 72.2% |
| Cc1nc(Nc2ncc(C(=O)Nc3c(C)cccc3Cl)s2)cc(N2CCN(CCO)CC2)n1 [dasatanib] + CC(C)(C)c1cnc(CSc2cnc(NC(=O)C3CCNCC3)s2)o1 [SNS-032] (first compound 0.02 µM, partner dose 0.05 µM) | 65.9% | 119% | 68.5% | 76.5% | 8.85% | 87.3% | 37.7% | 85.7% | 19.3% | 56.1% |
| C=CCn1c(=O)c2cnc(Nc3ccc(N4CCN(C)CC4)cc3)nc2n1-c1cccc(C(C)(C)O)n1 + Cc1cc(N2CCOCC2)cc2[nH]c(-c3c(NC[C@@H](O)c4cccc(Cl)c4)cc[nH]c3=O)nc12 [BMS536924] (first compound 0.1 µM, partner dose 1 µM) | 64.4% | 86.5% | 88.1% | 58.6% | 82.1% | 78.2% | 90.7% | 43.1% | 49% | 90.2% |
| Cc1nc(Nc2ncc(C(=O)Nc3c(C)cccc3Cl)s2)cc(N2CCN(CCO)CC2)n1 [dasatanib] + CCN(CC)CCCCNc1ncc2cc(-c3cc(OC)cc(OC)c3)c(NC(=O)NC(C)(C)C)nc2n1 [PD173074] (first compound 0.02 µM, partner dose 0.5 µM) | 75.6% | 89.7% | 76.9% | 114% | 17.7% | 79% | 59% | 82.5% | 38.7% | 55.9% |
| NC(=O)Nc1cc(-c2cccc(F)c2)sc1C(=O)N[C@H]1CCCNC1 + Cc1cc([N+](=O)[O-])ccc1NS(=O)(=O)c1cc(Cl)ccc1Cl [FH535] (first compound 0.1 µM, partner dose 5 µM) | 46.8% | 56.7% | 69.6% | 112% | 69.8% | 56.8% | 29% | 72.2% | 51.3% | 76.6% |
